B1: LINE1-mini (parent)
chain: GGCAGAGCUCAACACAGCGUGGCAAAGUGGCUGUGGCUAGACUGCC

Read counts are not given, so values of variants with three or more changes are uncertain.

The variants in this series derive from B1. Put plainly: self-cleavage, relative activity (ratio to wild type); higher = more cleavage; in vitro, sequencing; the parent is a self-cleaving ribozyme.
On to C10U A11G C31U U32C, for which the self-cleavage came out at 0.03. In the case of C10G A24C G29U G30C it was 0.01; in that of C10G A12G G22U, 0.02. Take C10G G21A G22C A39U: the self-cleavage was determined as 0.08. Consider C10U A26G G33A, for which the self-cleavage is 0.01.

For C10G A12C C13U C31U, the self-cleavage turned out to be 0.04. Turning to C10U A11G G22C G27A C31G, the self-cleavage stood at 0.01. In the case of C10U C13U G40U it was 0.11. Consider C10U C13U G40A, for which the self-cleavage amounted to 0.03. For C10G C15A C46G, the self-cleavage amounted to 0.03. In the case of C10G A12G U34G A39U it was 0.02; in that of C10G G19C G33U C37U C45U, 0.01.

Regarding C10G G17C C18U U28G U32G, the self-cleavage is 0. Turning to C10G A14G G40U G44A, the self-cleavage amounted to 0.02. In the case of C10G U32C C45G it was 0.01.

On to C10G C15A U20G C31U G36A G40A, for which the self-cleavage stood at 0.01.

Consider C10G G21U C31G, for which the self-cleavage worked out at 0.09.

In the case of C10G C15U C37A U43C G44A, the self-cleavage turned out to be 0.02. Take C10G G33C G40U: the self-cleavage was 0.01.

For C10U C13A G33A, the self-cleavage turned out to be 0.02. In the case of C10U A11C C23G G27U G35A it was 0.01. Regarding C10U A11C G30C, the self-cleavage came out at 0.02. In the case of C10G G27A G36C A41G C45A, the self-cleavage was 0. Turning to C10G C13U A26U G36A C46A, the self-cleavage stood at 0.01. In the case of C10U C13A C37U U38G G44U it was 0.02. In the case of C10U A14G U20C U32A G40U it was 0.07; in that of C10U C13A G29U G40C, 0.03.

As to C10U C13A C23A, the self-cleavage amounted to 0.04. Then C10G C18A G19U G21U U38C A41G, with 0. In the case of C10U C15A A16U G19A it was 0.07; in that of C10U A12G A16G U43A, 0.06; in that of C10G C15U U28G, 0.1. As to C10U A16G U32C, the self-cleavage is 0.05. In the case of C10U A12G A16C U32C it was 0.07; in that of C10G A11G U38C A39C, 0.01; in that of C10U C18U A25U, 0.28.

As for C10G A12U U20C G30U, the self-cleavage was determined as 0.05.

Take C10U C13U A26U U34G: the self-cleavage was 0.04. In the case of C10G A12U C18A C42A it was 0.02; in that of C10U A12U C18U U28G G36C, 0.01. Then C10U C15G A16U G17U U20G, with 0.03; and C10G C15A G17U C31A G44U, with 0.02. Consider C10G G19U G29A G44C, for which the self-cleavage came to 0.07. In the case of C10U A11U G40U C45A, the self-cleavage was 0.01. Then C10G C15U C23A U28A, with 0.08; and C10G G30U A39G, with 0.01; and C10G A14U A39C, with 0.03. In the case of C10U A25C U28A it was 0.24; in that of C10U A25G A26U C31G G35A, 0.03.

In the case of C10G A12G A16U C23U G29A A39C, the self-cleavage was found to be 0.01.

On to C10U A12U A25U G33A, for which the self-cleavage was 0.05. In the case of C10G A39C G40U, the self-cleavage amounted to 0.01. Then C10G C15A U38G, with 0.01.

C10G G19U G22A C23G U38C: the self-cleavage was found to be 0. In the case of C10G C31U G35U it was 0.01; in that of C10G G29C U32A U38C C42A, 0; in that of C10U A14U G22U U32G, 0.04.

Take C10G G17U U28A A39U C42G: the self-cleavage came to 0.01. In the case of C10U A14U G17A C18A it was 0.03; in that of C10G G33A G40C, 0.01. Then C10U A16U A25G C45A, with 0; and C10G A12U C18A, with 0.01.

Consider C10U A26G G30C, for which the self-cleavage came to 0.27. Then C10G C37G C42A, with 0; and C10G U32G G44A, with 0. In the case of C10U A14C C23G A26C C37A it was 0.02; in that of C10U A14C G36C C37A, 0.04; in that of C10U A11U A26U C31A, 0.04. Then C10G A25U C45A, with 0.05; and C10U C18A C42U G44U, with 0.01; and C10U C13A G21U, with 0. In the case of C10G A26G C46A, the self-cleavage was found to be 0.08. For the variant C10G C23G U28G, the self-cleavage came out at 0. For C10G C13A G27U, the self-cleavage came out at 0. Then C10G G19U G22C, with 0.05; and C10U A12U G30U C31G, with 0.02; and C10G C31U G40A, with 0.06. Take C10U C15A U32G A41C C42A: the self-cleavage was determined as 0.04.

With C10G A11U A14G U34G, the self-cleavage worked out at 0. Then C10G A16U U34A C42U, with 0; and C10G C15U A26G G29A C42A, with 0; and C10G C15G U43C, with 0.02. C10G G17U C23U A24U C45U: the self-cleavage turned out to be 0.03. C10G G17A G21C C23A G33U: the self-cleavage is 0.01. For C10U C15G U28A G40U, the self-cleavage came out at 0.01. Then C10U C15A G29A G30A U34G C42U U43G, with 0.01. In the case of C10G G35C C45U C46U it was 0.01. Turning to C10G C31U C42A, the self-cleavage came to 0.

With C10U C18G A24G, the self-cleavage turned out to be 0.08. As for C10G U28C U43G C46A, the self-cleavage turned out to be 0. Take C10U A11G G21A G36U A39G: the self-cleavage was 0. In the case of C10U C18G G22C C45U C46A, the self-cleavage came to 0.14. Regarding C10G G19C C42G C46U, the self-cleavage amounted to 0.62. In the case of C10U C15G A26G G27U it was 0.07. As for C10G C13G A24U G27C C31G G35U, the self-cleavage is 0.02. Then C10U A26U G29A G30U U32G, with 0.02; and C10G U38A C45G, with 0.02. Take C10G G17C G22C A24U G30A U32A A39G C42U: the self-cleavage is 0.01. In the case of C10G G35A C46A it was 0.02; in that of C10G A12U G27A U32C, 0.01; in that of C10G G21C C23G G29U G33U, 0.01. With C10G G22A G29C, the self-cleavage was 0.02.

Regarding C10G A11U A12U C23U, the self-cleavage came out at 0.02.

Take C10G A12C G36C: the self-cleavage was found to be 0.05. Take C10G A14U C15A C18G G33A G40U: the self-cleavage was 0.01. C10U C15U G33C U43C: the self-cleavage was 0.02. Then C10G G27U U38G, with 0.04. On to C10U A12U A25U G27U G35A, for which the self-cleavage came out at 0.05. On to C10G U28C U38G, for which the self-cleavage is 0.02. On to C10G C15A G36A, for which the self-cleavage amounted to 0.01. Then C10G C15U G29A C37G C45G, with 0.01.

Consider C10U A12G A25G G27C C45G, for which the self-cleavage was 0.02.

For the variant C10G C15G G35A, the self-cleavage amounted to 0.04.

For C10G G17U G27C U34G, the self-cleavage was found to be 0.03. As for C10G G22C G36U, the self-cleavage was found to be 0.04. In the case of C10U C15G A16U G33U it was 0.02. Then C10G U34C C42U, with 0.03; and C10U C13A C31U, with 0.05. On to C10G C15A A25C G33U C42U C46U, for which the self-cleavage was 0.01. Then C10G A16U U20A A26C U28A, with 0.01; and C10G A12C C13A A24G G33U, with 0.02.

Turning to C10U A14U C37U, the self-cleavage came out at 0.04.

Consider C10U C13U G27C C46A, for which the self-cleavage worked out at 0.08. In the case of C10U C13A C15G A16U U20C U28C it was 0.01. Turning to C10G C18G G19C G30A, the self-cleavage was found to be 0.15.

As for C10U C18G U34C, the self-cleavage is 0.04. As to C10G G19U C31A, the self-cleavage came to 0.

For the variant C10U A16G G29C A39U, the self-cleavage is 0.19. Then C10G A24G U32G, with 0.16. On to C10G A11U A14U G17A C37A A41U, for which the self-cleavage came out at 0.01. Turning to C10G C37G A41U, the self-cleavage is 0. In the case of C10U A26C A41G it was 0; in that of C10U C15U G35U C45U, 0.02. Then C10G U28G U34G, with 0.03; and C10G C15G U20A U34A A39U, with 0.02. Take C10G C18U A26G G33A: the self-cleavage is 0.01. In the case of C10U C13G G44A it was 0.03. In the case of C10G C15G A16U G29C C42A it was 0. As for C10G A14G C46G, the self-cleavage turned out to be 0.02. In the case of C10G G30U C31U C37U it was 0; in that of C10G A11U G30U C37A, 0. In the case of C10G C15A G22A G35C C37G it was 0.02. C10U C18A G29A: the self-cleavage came out at 0.2.

For the variant C10G G21A G30A U32A C46U, the self-cleavage worked out at 0.02. Take C10G A26U C45U: the self-cleavage is 0.08. In the case of C10G C13A U34A, the self-cleavage is 0.01. As for C10G C15U C23A A24U, the self-cleavage came out at 0.49. Then C10U A14U A26U C37G, with 0.06. Then C10U A11U G29A C31U, with 0.5. In the case of C10U A11C C13G U20A G21C it was 0.02. With C10G G17U C18U, the self-cleavage was determined as 0.05. In the case of C10U C13U G22U it was 0.03. Consider C10U A11C G40A, for which the self-cleavage worked out at 0.01. In the case of C10G C13A C18U G40C C42A it was 0.02. Turning to C10U A12C G33A C45A, the self-cleavage was determined as 0.03. In the case of C10G G19A C37A C46U it was 0; in that of C10U C13A G19U, 0.02; in that of C10U C15G C37U, 0.05. In the case of C10G A26G G33A G36U it was 0.02; in that of C10G A26G C45U, 0.04. Take C10U A12C C23A A25C G36A C37G: the self-cleavage was determined as 0. Consider C10G A26C C31A A41C C42G, for which the self-cleavage was determined as 0.01. In the case of C10U A41C C46U it was 0.02; in that of C10U C18G A26G, 0.24; in that of C10G A16G G17U C42G U43G, 0.08. Consider C10G G17A C18A U38C G40C C45U, for which the self-cleavage was determined as 0.01. Then C10U A26C U32G C42A, with 0.08.

(Values after the RNAGym collection of RNA variant scans (doi:10.7554/elife.90254).)
